Test results taken from the supplement of paper PMC4604168 (melanoma cell lines).
The list shows a part of the results. Many values rest on one well or one pass, so single values are uncertain.

Tests used:
Assay in all cases: cell count relative to DMSO control; melanoma cells; higher = more viable cells
Conditions in all cases: library dose: standard library concentration; 72 h
501Mel = tested on: 501Mel
A101D = tested on: A101D
A2058 = tested on: A2058
A375 = tested on: A375
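Note: cells treated in 1,536-well plates, then fixed and DAPI-stained, with nuclei counted from automated high-throughput microscope images.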

SMILES | cell count (501Mel) [%] | cell count (A101D) [%] | cell count (A2058) [%] | cell count (A375) [%]
CS(=O)(=O)c1ccc(C(=O)Nc2ccc(Cl)c(-c3ccccn3)c2)c(Cl)c1 [vismodegib] + CCN(CC)CCCCNc1ncc2cc(-c3cc(OC)cc(OC)c3)c(NC(=O)NC(C)(C)C)nc2n1 [PD173074] (first compound 5 µM, partner dose 0.5 µM) | 115 | 109 | 116 | 125
CN(c1ncccc1CNc1nc(Nc2ccc3c(c2)CC(=O)N3)ncc1C(F)(F)F)S(C)(=O)=O + COC(=O)c1sccc1S(=O)(=O)Nc1ccc(Nc2ccccc2)cc1OC [GSK0660] (first compound 0.4 µM, partner dose 5 µM) | 68.3 | 75.6 | 81.5 | 67.5
C=C(c1ccc(C(=O)O)cc1)c1cc2c(cc1C)C(C)(C)CCC2(C)C [Bexarotene] + CCCCCCCCCCCC1=C(O)C(=O)C=C(O)C1=O [Embelin] (first compound 10 µM, partner dose 6 µM) | 97.7 | 94.7 | 94.5 | 127
NC1(c2ccc(-c3nc4ccn5c(=O)[nH]nc5c4cc3-c3ccccc3)cc2)CCC1 + O=C(O)C(=O)Nc1sc2c(c1C(=O)O)CCNC2 [TCS401] (first compound 2 µM, partner dose 8.33333 µM) | 80.7 | 89.3 | 82.5 | 136
NC1(c2ccc(-c3nc4ccn5c(=O)[nH]nc5c4cc3-c3ccccc3)cc2)CCC1 + COc1cc(N2CCC(N3CCN(C)CC3)CC2)ccc1Nc1ncc(Cl)c(Nc2ccccc2S(=O)(=O)C(C)C)n1 [NVP-TAE684] (first compound 2 µM, partner dose 0.4 µM) | 51.1 | 50.2 | 34.2 | 104
C=C(c1ccc(C(=O)O)cc1)c1cc2c(cc1C)C(C)(C)CCC2(C)C [Bexarotene] + COc1ccc2c(c1)CCC1C2CCC2(C)C(NCCCCCCN3C(=O)C=CC3=O)CCC12 [U73122] (first compound 10 µM, partner dose 2 µM) | 89 | 70.2 | 89.9 | 110
NC1(c2ccc(-c3nc4ccn5c(=O)[nH]nc5c4cc3-c3ccccc3)cc2)CCC1 + CCN(CC)CCCCNc1ncc2cc(-c3cc(OC)cc(OC)c3)c(NC(=O)NC(C)(C)C)nc2n1 [PD173074] (first compound 2 µM, partner dose 0.5 µM) | 114 | 94.3 | 102 | 106
C=C(c1ccc(C(=O)O)cc1)c1cc2c(cc1C)C(C)(C)CCC2(C)C [Bexarotene] + CCc1ccc(CCOc2ccc(CC3SC(=O)NC3=O)cc2)nc1 [pioglitazone] (first compound 10 µM, partner dose 10 µM) | 107 | 94.5 | 94.7 | 123
CN(c1ncccc1CNc1nc(Nc2ccc3c(c2)CC(=O)N3)ncc1C(F)(F)F)S(C)(=O)=O + COc1ccc(COc2ccc(Cc3cnc(N)nc3N)cc2OC)cc1 [GW2580] (first compound 0.4 µM, partner dose 5 µM) | 88.4 | 82.4 | 78.8 | 80.8
NC1(c2ccc(-c3nc4ccn5c(=O)[nH]nc5c4cc3-c3ccccc3)cc2)CCC1 + COc1ccc(COc2ccc(Cc3cnc(N)nc3N)cc2OC)cc1 [GW2580] (first compound 2 µM, partner dose 5 µM) | 70.6 | 74.6 | 64.6 | 91.9
C=C(c1ccc(C(=O)O)cc1)c1cc2c(cc1C)C(C)(C)CCC2(C)C [Bexarotene] + O=c1cc(-c2cccc3c2Sc2ccccc2S3)oc(N2CCOCC2)c1 [KU55933] (first compound 10 µM, partner dose 5 µM) | 114 | 119 | 100 | 110
CCCS(=O)(=O)Nc1ccc(F)c(C(=O)c2c[nH]c3ncc(Cl)cc23)c1F + Cc1cc([N+](=O)[O-])ccc1NS(=O)(=O)c1cc(Cl)ccc1Cl [FH535] (first compound 0.4 µM, partner dose 5 µM) | 86.9 | 70.8 | 93.8 | 80.7
CS(=O)(=O)c1ccc(C(=O)Nc2ccc(Cl)c(-c3ccccn3)c2)c(Cl)c1 [vismodegib] + O=C(Nc1ccccc1)c1cc([N+](=O)[O-])ccc1Cl [GW9662] (first compound 5 µM, partner dose 10 µM) | 86.7 | 90.5 | 89.5 | 153
NC1(c2ccc(-c3nc4ccn5c(=O)[nH]nc5c4cc3-c3ccccc3)cc2)CCC1 + Oc1nc(-c2ccc(C(F)(F)F)cc2)nc2c1CSCC2 [XAV939] (first compound 2 µM, partner dose 10 µM) | 104 | 71.7 | 76.3 | 123
